Our source for the binding signal values is publication PMC12136788.

This is one part of the list.

B1: chr19:53353201:53353302:+|CDS|ENSG00000213799|msi1|FALSE|unique (ssRNA)
RNA: GGGAGUUCUACAGUCCGACGAUCCACAAUUCAGCCCUUGAAAUUCAUAAGGCAAUUCAUACUGGAGAAAAACCUUACAAGUGUAGUGAAUGUGGCAAGGUUUUUAAUAGAAAAGCAAACCUUUCACGUCAUCAUAGACUUCAUCAACAGAGGAUUGAGCAUCA
B2: ENSG00000182944:stop:overlap|stop_codon|ENSG00000182944|stop_codon|NA|stop_codon (ssRNA)
RNA: GGGAGUUCUACAGUCCGACGAUCGAGGACCUGGAAAAAUGGAUAAAGGCGAGCACCGUCAGGAGCGCAGAGAUCGGCCCUACUAGAUGCAGAGACCCCGCAGAGCUGCAUUGACUACCAGAUUUAUUUUUUAAACCAGAAAAUCAACAGAGGAUUGAGCAUCA
B3: chr1:205084032:205084133:-|CDS|ENSG00000174529|msi1|FALSE|unique (ssRNA)
RNA: GGGAGUUCUACAGUCCGACGAUCGGAGACCGUCUGUGAGGUGGGCCCUGAUGGAGUGAGAAGGAAAUGUCAGACUCGGCGCUUAGAAUGUCUGACCAACUGGAUCUGUGGGAUGCUCCAUUUCACCAUUCUCAUUGGCAAGGACAACAGAGGAUUGAGCAUCA
B4: chr8:23842320:23842421:-|3pUTR|ENSG00000159167|msi1|total|mutant (ssRNA)
RNA: GGGAGUUCUACAGUCCGACGAUCUAUGUAUCUACAAUACAUAUAUCUACACAUACAGAAAGAAGCAGUUCUCACAAUGUUGCCCGUUUUUUGCUUCUCUUUCCCCCACCCUACUCCCUCCAAUUCCCCCUUAAACUUCCAAAGCAACAGAGGAUUGAGCAUCA
B5: ENSG00000198589:be:win_7451|CDS|ENSG00000198589|bound_else_gene|NA|bound_elsewhere_windowed (ssRNA)
RNA: GGGAGUUCUACAGUCCGACGAUCUGAGUCCAUUGAUGUUCACAGACAAAGCCCAGCAGGAUGUUAUCAUGGUCCUCAAGUUUCCCUCCAACUCCCCUGUUACUCACGUGGCAGCCAACACCCAGCCUGGUUUGGCAACUCCCGCAACAGAGGAUUGAGCAUCA
B6: chrX:64224827:64225650:-|CDS|ENSG00000198881|control|control|control (ssRNA)
RNA: GGGAGUUCUACAGUCCGACGAUCCCUAGACCAUGGUGCAGAGGCCAACGUCAAAGCUAAACUACCAGUCUGGGCAUCAAACAUAGCUUCAUGUUCUGGCCCCCUCUAUUUGGCCGCAGUCUACGGGCACCUGGACUGUUUCCGCAACAGAGGAUUGAGCAUCA
B7: chr12:29451344:29451569:-|CDS|ENSG00000187950|control|control|control (ssRNA)
RNA: GGGAGUUCUACAGUCCGACGAUCGAAGCAGAGCUAGAAAAGCCUAGAGGCUUUUUUCCCACACCACGGUAUCUACUGGAUUAUAGAGGAAGACUGGAAUGUUCUUGGGUGCUCAGAGUUUCAGCAAGCAGUAUGGCAAAAUUUCAACAGAGGAUUGAGCAUCA
B8: chr17:44959692:44960187:-|three_prime_utr|ENSG00000131094|control|control|control (ssRNA)
RNA: GGGAGUUCUACAGUCCGACGAUCCCCGGCCCUCCCCGGCUAUGACGCCCCCGGCCCGUGCUCAACACCGCCUGGGCCACAGCUAGGCCCUCCCACCGGCUCGCUGCAGAGCCGGGCCCAGCGCGCCCUGUCCCCGUGCCAGGGCAACAGAGGAUUGAGCAUCA
B9: chr11:123805410:123806349:-|CDS|ENSG00000196099|control|control|control (ssRNA)
RNA: GGGAGUUCUACAGUCCGACGAUCGUGGGAGCCUUCCUGUCUGUGUUGUUUCCAACCAUUGUAGUGACAAGGCUACCUUACUGUAGGAAAGAAAUUAAUCAUUUCUUCUGUGACAUUGCCCCUCUUCUUCAGGUGGCCUGUAUACAACAGAGGAUUGAGCAUCA
B10: chr17:58089184:58089285:+|CDS_3pUTR|ENSG00000264364|msi1_unk|total|mutant (ssRNA)
RNA: GGGAGUUCUACAGUCCGACGAUCCAAAGCACUUCAUCUAUUUUUACUUGGGUCAAGUUGCAAUCCUCCUCUUCAAGUCAGGCCCGGUGGCCAUGGUGAAGGUGUCAGUGGCGGCGGCAGCGAUGGCAAGCAGGCGGCGUUGCUCAACAGAGGAUUGAGCAUCA
B11: chr19:32875924:32879378:-|three_prime_utr|ENSG00000121289|control|control|control (ssRNA)
RNA: GGGAGUUCUACAGUCCGACGAUCACCUGCUGGACGGCUGCGAUGUCUGCUCCUAUGACCUGAAGUCUCAUGCCCCCACCUGCUAGAAUCUGCGGGAGCCCGUGGUGUAGCCUCCUCUGGCCUGAAAGGUCUGCCUCACACAGGCAACAGAGGAUUGAGCAUCA
B12: chrX:47636291:47636398:-|3pUTR|ENSG00000126767|unk|total|mutant (ssRNA)
RNA: GGGAGUUCUACAGUCCGACGAUCGCCUGCCCUUGGGGAGAUGAGGGAGCCCUGUCUGCGUUUUUGGAUGUGAGCCGAAGAGUCCGUUUGUUUUGUUUUAUUAUUCCUGGCCAUACUCAGGGGUCCAGGAAGAAUUUGUACCAUCAACAGAGGAUUGAGCAUCA
B13: chr22:38736040:38736148:-|3pUTR|ENSG00000100242|msi1|FALSE|unique (ssRNA)
RNA: GGGAGUUCUACAGUCCGACGAUCCCCCAUGCAGAUGAAAAGGACGGGCAGGGUCUCCUGAGCAGCAGGUGGCUCGAGGCGGUUAGCAGGCUCCAGCAGCUCCCUUCUUCCUUCCCUCUGUGCCCGUGGCGUCUGCUUCCCAUCCAACAGAGGAUUGAGCAUCA
B14: chr12:62383855:62383964:+|CDS|ENSG00000135655|unk|FALSE|unique (ssRNA)
RNA: GGGAGUUCUACAGUCCGACGAUCGGUAGGACGUUUUGCACCUCAGUUCUCUGGAUAUCAGCAGCAAGACUGUCAAGAACUGUUAGCUUUCCUAUUAGAUGGAUUACAUGAGGAUUUGAAUAGAAUUAGGAAAAAACCAUAUAUCAACAGAGGAUUGAGCAUCA
B15: chr1:151291320:151291421:+|3pUTR|ENSG00000143373|unk|total|mutant (ssRNA)
RNA: GGGAGUUCUACAGUCCGACGAUCAAUAUUUUGUUAAUUCCUGUCUCUCCAACCUGAAGAAGAAGAGCAUUUGAGGAUUAUUCCCGUUAUUUGCAACCUCCCUUUGGGUUUGGCCCUGGAGUCCCCGCCGAGUGGACCCUCCAUCAACAGAGGAUUGAGCAUCA
B16: chr16:75660256:75661249:-|CDS|ENSG00000284484|control|control|control (ssRNA)
RNA: GGGAGUUCUACAGUCCGACGAUCCUGGGGCAAGAUAUGCAGGUAGGGGCUUCAAGCAACUCAGGACUCAAAUGCAGCAGUUUUAGGUUGAGGGGUCUACACGGGCCUGCCACAGGAACCCAAGGAUGCAGCUUUGCAAAGUAUCAACAGAGGAUUGAGCAUCA
B17: chr11:6768009:6768957:-|CDS|ENSG00000188124|control|control|control (ssRNA)
RNA: GGGAGUUCUACAGUCCGACGAUCCGUGACAGGUGUGACUUUCCUCUUGCUCCCCAUUUCUGCCAUUGUGGCCUCCUACACACUAGUCCUAUUCACUGUGCUUCGUAUGCCAUCAAAUGAGGGGAGGAAGAAAGCCCUUGUCACCAACAGAGGAUUGAGCAUCA
B18: chr10:133362484:133362867:-|three_prime_utr|ENSG00000127884|control|control|control (ssRNA)
RNA: GGGAGUUCUACAGUCCGACGAUCAACCAGCUGCCCCUGCUUCACACCUCUGCUUGGAGAGGACAAGUGCAGCCUGUCAGUUUUAGAAGCAAGUAAAUCAUCCUCUUUUCAAGAGCAGUGUCCGUGGUGUGCAGUUCCUCUCCACAACAGAGGAUUGAGCAUCA
B19: chr3:149738563:149738664:-|3pUTR|ENSG00000114744|unk|total|mutant (ssRNA)
RNA: GGGAGUUCUACAGUCCGACGAUCUGGAUUAUUAUGGGUCCUUGAUAAAUUCUCAAAGCCUUUUUUUUUGUUCAUCUCUAAAACCGGAAUACCGGAUUACCUACCACAUUGACUCGUAAGGACUAUAUGAGACCAUGUAUACCGCAACAGAGGAUUGAGCAUCA
B20: chr5:136063637:136063821:+|3pUTR|ENSG00000120708|msi1|total|mutant (ssRNA)
RNA: GGGAGUUCUACAGUCCGACGAUCUGUCAAAUGUGUCUCACAUCUACACGUGGCUUGGAGGCUUUUAUGGGGCCCUGUCCAGGCCGAAAAGAAAUGGUAUGCCGAGCUCCGAUUUCCCUAUUGUGACAGAGCCAUGGUGUGUUUCAACAGAGGAUUGAGCAUCA
B21: chr10:110135209:110135310:+|3pUTR|ENSG00000148700|msi1|total|mutant (ssRNA)
RNA: GGGAGUUCUACAGUCCGACGAUCCUCUCUAUUGGAAGAUUUUUUUAAUGUUCUACAUCAUUUAUGUUGUAUUACAAUGUAUGCCGAAACCGUAACCUGUGAACUAUGCUUUUCCAUAACUUUUUAAAAAUAUAUAUAUCUAAACAACAGAGGAUUGAGCAUCA
B22: ENSG00000198589:be:win_3951|CDS|ENSG00000198589|bound_else_gene|NA|bound_elsewhere_windowed (ssRNA)
RNA: GGGAGUUCUACAGUCCGACGAUCUUUGCUCACUGAUCUAUUAUUUUCAAUAGAAACAGAUAUACAGAUGUGGAGAAGCCAUUCAACAAAGACAGUUAUGGACUUCGUGAAUAGCAGUGAUAAUGUCAUCUUUGUACACAACACCAACAGAGGAUUGAGCAUCA

This experiment deals with MSI1 full-length (mouse, UniProt Q61474 1-362). The experiment is described as follows: nsRBNS (natural sequence RNA bind-n-seq); RBNS binding buffer (assumed for nsRBNS): 25 mM Tris pH 7.5, 150 mM KCl, 3 mM MgCl2, 0.01% Triton X-100, 500 ug/ml BSA, 20 U/ml SUPERase-In, 4 C; UNK is unkempt and MSI1 is Musashi-1; names of the RNAs are library labels; protein concentration not given here; high values mean tight binding.
Chain of UniProt Q61474 (Q61474 whole entry): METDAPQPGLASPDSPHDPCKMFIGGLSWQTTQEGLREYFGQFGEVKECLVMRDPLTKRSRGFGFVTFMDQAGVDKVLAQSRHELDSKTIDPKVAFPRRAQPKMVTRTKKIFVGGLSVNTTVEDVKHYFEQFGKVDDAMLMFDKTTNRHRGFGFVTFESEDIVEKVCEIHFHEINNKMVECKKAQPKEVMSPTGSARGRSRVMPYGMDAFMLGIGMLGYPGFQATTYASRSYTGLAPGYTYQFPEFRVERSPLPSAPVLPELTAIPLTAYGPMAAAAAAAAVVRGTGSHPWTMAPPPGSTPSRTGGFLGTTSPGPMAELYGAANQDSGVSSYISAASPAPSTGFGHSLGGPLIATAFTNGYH
B1 gave a binding signal of 1.02 enrichment R.

In the case of B2, the binding signal is 0.369 enrichment R.

B3 showed a binding signal of 0.55 enrichment R.

B4 gave a binding signal of 0.528 enrichment R.

B5 displayed a binding signal of 0.583 enrichment R.

B6: the binding signal is 0.415 enrichment R.

In turn, B7 showed a binding signal of 0.74 enrichment R.

As for B8, the binding signal is 0.382 enrichment R.

Molecule B9 showed a binding signal of 0.498 enrichment R.

In turn, B10 returned a binding signal of 0.646 enrichment R.

As for B11, the binding signal is 0.51 enrichment R.

Molecule B12 came in with a binding signal of 0.639 enrichment R.

Molecule B13 had a binding signal of 0.677 enrichment R.

Take B14: the binding signal worked out at 11.4 enrichment R.

Molecule B15 came in with a binding signal of 0.403 enrichment R.

In turn, B16 had a binding signal of 0.591 enrichment R.

B17: the binding signal came to 0.612 enrichment R.

B18 had a binding signal of 1.36 enrichment R.

B19 registered a binding signal of 0.37 enrichment R.

The molecule B20 showed a binding signal of 0.371 enrichment R.

In the case of B21, the binding signal stood at 7.3 enrichment R.

As for B22, the binding signal stood at 0.371 enrichment R.
